Measured values as given in the supplement of paper PMC4604168 (melanoma cell lines).
Some of the results follow. Many values rest on one well or one pass, so single values are uncertain.

Tests used:
Assay in all cases: cell count relative to DMSO control; melanoma cells; higher = more viable cells
[1] = test system: MZ2-MEL; details: library dose: low library concentration; 72 h
[2] = test system: MeWo; details: library dose: low library concentration; 72 h
[3] = test system: RPMI7951; details: library dose: low library concentration; 72 h
[4] = test system: RVH-421; details: library dose: low library concentration; 72 h
[5] = test system: SkMel28; details: library dose: low library concentration; 72 h
[6] = test system: SkMel30; details: library dose: low library concentration; 72 h
[7] = test system: SkMel5; details: library dose: low library concentration; 72 h
[8] = test system: UACC257; details: library dose: low library concentration; 72 h
[9] = test system: UACC62; details: library dose: low library concentration; 72 h
[10] = test system: WM115; details: library dose: low library concentration; 72 h
[11] = test system: WM1716; details: library dose: low library concentration; 72 h
[12] = test system: WM1745; details: library dose: low library concentration; 72 h
[13] = test system: WM3526; details: library dose: low library concentration; 72 h
[14] = test system: WM3619; details: library dose: low library concentration; 72 h
[15] = test system: WM451Lu; details: library dose: low library concentration; 72 h
[16] = test system: SkMel2; details: library dose: low library concentration; 72 h
[17] = test system: 501Mel; details: library dose: standard library concentration; 72 h
[18] = test system: A101D; details: library dose: standard library concentration; 72 h
[19] = test system: A2058; details: library dose: standard library concentration; 72 h
[20] = test system: A375; details: library dose: standard library concentration; 72 h

Compound | cell count [1] | cell count [2] | cell count [3] | cell count [4] | cell count [5] | cell count [6] | cell count [7] | cell count [8] | cell count [9] | cell count [10] | cell count [11] | cell count [12] | cell count [13] | cell count [14] | cell count [15] | cell count [16] | cell count [17] | cell count [18] | cell count [19] | cell count [20]
CC(C)(C)c1cnc(CSc2cnc(NC(=O)C3CCNCC3)s2)o1 + CCc1ccc(CCOc2ccc(CC3SC(=O)NC3=O)cc2)nc1 [pioglitazone] (first compound 0.01 µM, partner dose 2 µM) | 100% | 106% | 89.5% | 84.9% | 113% | 91.7% | 97.9% | 83.6% | 98.4% | 96.3% | 90.4% | 92.5% | 91.2% | 123% | 97% |  |  |  |  | 
CCCCCCCCc1ccc(CCC(N)(CO)CO)cc1 [fingolimod] + CN(c1ncccc1CNc1nc(Nc2ccc3c(c2)CC(=O)N3)ncc1C(F)(F)F)S(C)(=O)=O [PF562271] (first compound 2 µM, partner dose 0.08 µM) |  | 83.4% | 51% | 91.1% | 71.1% | 104% |  |  | 81.7% | 81.8% | 83.3% | 63.5% | 92.9% | 72.7% | 85.1% |  |  |  |  | 
CCCCCCCCc1ccc(CCC(N)(CO)CO)cc1 [fingolimod] + COc1cc(N2CCC(N3CCN(C)CC3)CC2)ccc1Nc1ncc(Cl)c(Nc2ccccc2S(=O)(=O)C(C)C)n1 [NVP-TAE684] (first compound 2 µM, partner dose 0.08 µM) |  | 83.2% | 92.5% | 71.4% | 73.8% | 85.3% | 72.1% | 80.6% | 74.9% | 92.1% | 83.6% | 67.6% | 66.3% | 97.2% | 91.2% |  |  |  |  | 
CC(C)(C)c1cnc(CSc2cnc(NC(=O)C3CCNCC3)s2)o1 + Oc1nc(-c2ccc(C(F)(F)F)cc2)nc2c1CSCC2 [XAV939] (first compound 0.01 µM, partner dose 2 µM) | 95.7% | 93.1% | 76.4% | 111% | 78.8% | 151% | 95.3% | 88.2% | 72.7% | 93% | 58.7% | 73.6% | 105% | 74.7% | 106% |  |  |  |  | 
NC(=O)c1ccc(N(C(N)=O)c2c(F)cccc2F)nc1-c1ccc(F)cc1F + COCC[n+]1c2c(n(Cc3cnccn3)c1C)C(=O)c1ccccc1C2=O [YM155] (first compound 0.4 µM, partner dose 0.0004 µM) |  | 108% | 84.5% | 97.3% | 101% | 92% |  |  | 97.5% | 99.2% | 118% | 118% | 104% | 98.1% | 74.1% | 83% |  |  |  | 
NC(=O)c1ccc(N(C(N)=O)c2c(F)cccc2F)nc1-c1ccc(F)cc1F + Oc1nc(-c2ccc(C(F)(F)F)cc2)nc2c1CSCC2 [XAV939] (first compound 0.4 µM, partner dose 2 µM) |  | 102% | 89.7% | 85.6% | 84.6% | 99.7% | 92.2% | 73.2% | 92.7% | 85.3% | 70.5% | 86.5% | 98.4% | 99.4% | 88.2% | 98.9% |  |  |  | 
CN(NC(=O)CC(=O)NN(C)C(=S)c1ccccc1)C(=S)c1ccccc1 + CC(C)CCN1c2nc(Nc3cc(F)c(O)c(F)c3)ncc2N(C)C(=O)C1C [BID1870] (first compound 0.006 µM, partner dose 0.2 µM) | 103% | 71.6% | 91.6% | 78.7% | 76.6% | 102% | 86.9% | 74.1% | 68.9% | 86.1% | 91.1% | 38.6% | 83.8% | 57.6% | 85% |  |  |  |  | 
Cc1ccc(NC(=O)c2cccc(N(C)C)c2)cc1NC(=O)c1ccc(O)cc1 + CC(C)CCN1c2nc(Nc3cc(F)c(O)c(F)c3)ncc2N(C)C(=O)C1C [BID1870] (first compound 2 µM, partner dose 0.2 µM) | 84.9% | 86.9% | 95.3% | 90.7% | 89.3% | 72.2% | 91.3% | 81.9% | 77.4% | 96.7% | 92.7% | 104% | 93.1% | 92.1% | 127% |  |  |  |  | 
CCc1ccc(CCOc2ccc(CC3SC(=O)NC3=O)cc2)nc1 (centres undefined) [pioglitazone] + COc1ccc2c(c1)CCC1C2CCC2(C)C(NCCCCCCN3C(=O)C=CC3=O)CCC12 [U73122] (first compound 2 µM, partner dose 0.4 µM) | 94.4% | 100% | 102% | 116% | 98.2% | 94.6% | 86.7% | 75.1% | 105% | 92.2% | 96.4% | 86.2% | 95.3% | 132% | 84.3% |  |  |  |  | 
NC(=O)c1ccc(N(C(N)=O)c2c(F)cccc2F)nc1-c1ccc(F)cc1F + CC(=O)O[C@@]12CO[C@@H]1C[C@H](O)[C@@]1(C)C(=O)[C@H](O)C3=C(C)[C@@H](OC(=O)[C@H](O)[C@@H](NC(=O)OC(C)(C)C)c4ccccc4)C[C@@](O)([C@@H](OC(=O)c4ccccc4)[C@H]21)C3(C)C [Docetaxel] (first compound 0.4 µM, partner dose 0.0001 µM) | 57.9% | 56.9% | 41.4% | 70.2% | 63.2% | 56.7% |  |  | 46.4% | 78.3% | 63.3% | 58.9% | 44.6% | 62.3% | 66.1% |  |  |  |  | 
CC(C)(C)c1cnc(CSc2cnc(NC(=O)C3CCNCC3)s2)o1 + O=S(=O)(c1ccccc1)N(CC(F)(F)F)c1ccc(C(O)(C(F)(F)F)C(F)(F)F)cc1 [T0901317] (first compound 0.01 µM, partner dose 1.4 µM) |  | 88.7% | 79.3% | 96.4% | 78.1% | 91.9% | 78.3% | 76.8% | 83.7% | 88% | 83.5% | 96.1% | 85.6% | 103% | 96.3% |  |  |  |  | 
CCCCCCCCc1ccc(CCC(N)(CO)CO)cc1 [fingolimod] + CC(C)(C)c1cnc(CSc2cnc(NC(=O)C3CCNCC3)s2)o1 [SNS-032] (first compound 2 µM, partner dose 0.01 µM) |  | 99.6% | 66.9% | 111% | 85.4% | 98.9% | 86.1% | 76.9% | 79.2% | 92.3% | 82.2% | 88.9% | 99.5% | 101% | 103% | 103% |  |  |  | 
CCc1ccc(CCOc2ccc(CC3SC(=O)NC3=O)cc2)nc1 (centres undefined) [pioglitazone] + O=C(O)C(=O)Nc1sc2c(c1C(=O)O)CCNC2 [TCS401] (first compound 2 µM, partner dose 1.66667 µM) |  | 85.3% | 100% | 112% | 87.8% | 108% | 102% | 91.4% | 97.7% | 95.6% | 93.8% | 77.6% | 70.4% | 131% | 98.9% |  |  |  |  | 
NC(=O)c1ccc(N(C(N)=O)c2c(F)cccc2F)nc1-c1ccc(F)cc1F + CCc1ccc(CCOc2ccc(CC3SC(=O)NC3=O)cc2)nc1 [pioglitazone] (first compound 0.4 µM, partner dose 2 µM) |  | 113% | 90.8% | 114% | 106% | 90.9% | 109% | 88.3% | 103% | 97.7% | 104% | 103% | 99.5% | 77.5% | 88.5% |  |  |  |  | 
CCCCCCCCc1ccc(CCC(N)(CO)CO)cc1 [fingolimod] + CC(=O)c1c(C)c2cnc(Nc3ccc(N4CCNCC4)cn3)nc2n(C2CCCC2)c1=O [palbociclib] (first compound 2 µM, partner dose 0.04 µM) | 82.5% | 71.7% | 76% | 128% | 73.2% | 84.5% |  |  | 79.3% | 64.3% | 66.7% | 83.8% | 86.1% | 71.5% | 88% |  |  |  |  | 
COc1cc2c(Oc3ccc4[nH]c(C)cc4c3F)ncnc2cc1OCCCN1CCCC1 [cediranib] + CCc1ccc(CCOc2ccc(CC3SC(=O)NC3=O)cc2)nc1 [pioglitazone] (first compound 2 µM, partner dose 10 µM) |  |  |  |  |  |  |  |  |  |  |  |  |  |  |  |  | 65.9% | 100% | 84.2% | 108%
NC(=O)c1ccc(N(C(N)=O)c2c(F)cccc2F)nc1-c1ccc(F)cc1F + Cc1cc([N+](=O)[O-])ccc1NS(=O)(=O)c1cc(Cl)ccc1Cl [FH535] (first compound 2 µM, partner dose 5 µM) |  |  |  |  |  |  |  |  |  |  |  |  |  |  |  |  | 84.3% | 72.5% | 77.7% | 69.6%
CC(C)(C)c1cnc(CSc2cnc(NC(=O)C3CCNCC3)s2)o1 + Cc1cc([N+](=O)[O-])ccc1NS(=O)(=O)c1cc(Cl)ccc1Cl [FH535] (first compound 0.05 µM, partner dose 5 µM) |  |  |  |  |  |  |  |  |  |  |  |  |  |  |  |  | 75.1% | 66% | 79.7% | 86.6%
NC(=O)c1ccc(N(C(N)=O)c2c(F)cccc2F)nc1-c1ccc(F)cc1F + O=C(O)C(=O)Nc1sc2c(c1C(=O)O)CCNC2 [TCS401] (first compound 2 µM, partner dose 8.33333 µM) |  |  |  |  |  |  |  |  |  |  |  |  |  |  |  |  | 80.8% | 101% | 91.2% | 148%
CN(NC(=O)CC(=O)NN(C)C(=S)c1ccccc1)C(=S)c1ccccc1 + Cc1cc([N+](=O)[O-])ccc1NS(=O)(=O)c1cc(Cl)ccc1Cl [FH535] (first compound 0.03 µM, partner dose 5 µM) |  |  |  |  |  |  |  |  |  |  |  |  |  |  |  |  | 0.542% | 35.1% | 7.9% | 96.6%
CN(NC(=O)CC(=O)NN(C)C(=S)c1ccccc1)C(=S)c1ccccc1 + COc1ccc2c(c1)CCC1C2CCC2(C)C(NCCCCCCN3C(=O)C=CC3=O)CCC12 [U73122] (first compound 0.03 µM, partner dose 2 µM) |  |  |  |  |  |  |  |  |  |  |  |  |  |  |  |  | 110% | 71.5% | 81.4% | 97%
CN(NC(=O)CC(=O)NN(C)C(=S)c1ccccc1)C(=S)c1ccccc1 + COc1cc(N2CCC(N3CCN(C)CC3)CC2)ccc1Nc1ncc(Cl)c(Nc2ccccc2S(=O)(=O)C(C)C)n1 [NVP-TAE684] (first compound 0.03 µM, partner dose 0.4 µM) |  |  |  |  |  |  |  |  |  |  |  |  |  |  |  |  | 0.672% | 54.7% | 6.73% | 80.9%
CN(NC(=O)CC(=O)NN(C)C(=S)c1ccccc1)C(=S)c1ccccc1 + Oc1cc(-c2nc(-c3ccccc3)[nH]c2-c2ccncc2)ccc1Cl [L779450] (first compound 0.03 µM, partner dose 1 µM) |  |  |  |  |  |  |  |  |  |  |  |  |  |  |  |  | 10.8% | 30.4% | 10.2% | 87.5%
